{
  "source": "the supplement of paper PMC8728848",
  "binders": {"B1": {"name": "CML1 (Coprinopsis cinerea) (protein)", "chain": "MAIFHTGSELFIITRGPGKLTLLTWGGLNNLRSVIGAIPTENTGVTKWAVSFSHNYTRFSFIWEGQGEACYQIGNGLTRSPVGRSWSSSSTIHWGSSTVITEDVTSVVPGAVNRDKVTTAYALPDNL"}},
  "assay_in_all_cases": "glycan array binding signal (z-score within array); higher = stronger binding",
  "settings_in_all_cases": "glycan notation: IUPAC condensed, linker removed",
  "key": {"Fuc(a1-2)Gal": {"target": "Fuc(a1-2)Gal", "in_short": "(§1)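 Arrays were curated from the Consortium for Functional Glycomics database, 3228 in total, and kept only where the protein sequence was available. Binding is expressed as a within-array Z-score. This score was averaged across arrays of the same protein sequence at different concentrations or buffers and across linkers, and negative values can be read as non-binding.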"}, "Fuc(a1-2)Gal(b1-3)GalNAc": {"target": "Fuc(a1-2)Gal(b1-3)GalNAc", "in_short": "as §1"}, "[1]": {"target": "Fuc(a1-2)Gal(b1-3)GalNAc(a1-3)[Fuc(a1-2)]Gal(b1-4)Glc", "in_short": "as §1"}, "[2]": {"target": "Fuc(a1-2)Gal(b1-3)GalNAc(a1-3)[Fuc(a1-2)]Gal(b1-4)GlcNAc", "in_short": "as §1"}, "[3]": {"target": "Fuc(a1-2)Gal(b1-3)GalNAc(b1-3)Gal", "in_short": "as §1"}, "[4]": {"target": "Fuc(a1-2)Gal(b1-3)GalNAc(b1-3)Gal(a1-4)Gal(b1-4)Glc", "in_short": "as §1"}, "[5]": {"target": "Fuc(a1-2)Gal(b1-3)GalNAc(b1-4)[Neu5Ac(a2-3)]Gal(b1-4)Glc", "in_short": "as §1"}, "Fuc(a1-2)Gal(b1-3)GlcNAc": {"target": "Fuc(a1-2)Gal(b1-3)GlcNAc", "in_short": "as §1"}, "[6]": {"target": "Fuc(a1-2)Gal(b1-3)GlcNAc(b1-2)Man(a1-3)[Fuc(a1-2)Gal(b1-3)GlcNAc(b1-2)Man(a1-6)]Man(b1-4)GlcNAc(b1-4)GlcNAc", "in_short": "as §1"}, "[7]": {"target": "Fuc(a1-2)Gal(b1-3)GlcNAc(b1-2)Man(a1-3)[Fuc(a1-2)Gal(b1-3)GlcNAc(b1-2)Man(a1-6)]Man(b1-4)GlcNAc(b1-4)[Fuc(a1-6)]GlcNAc", "in_short": "as §1"}, "[8]": {"target": "Fuc(a1-2)Gal(b1-3)GlcNAc(b1-3)Gal(b1-4)Glc", "in_short": "as §1"}, "[9]": {"target": "Fuc(a1-2)Gal(b1-3)GlcNAc(b1-3)GalNAc", "in_short": "as §1"}, "[10]": {"target": "Fuc(a1-2)Gal(b1-3)GlcNAc(b1-3)[Fuc(a1-2)Gal(b1-3)GlcNAc(b1-6)]GalNAc", "in_short": "as §1"}, "[11]": {"target": "Fuc(a1-2)Gal(b1-3)GlcNAc(b1-3)[Gal(b1-4)GlcNAc(b1-6)]Gal(b1-4)Glc", "in_short": "as §1"}, "[12]": {"target": "Fuc(a1-2)Gal(b1-3)GlcNAc(b1-3)[Neu5Ac(a2-6)Gal(b1-4)GlcNAc(b1-6)]Gal(b1-4)Glc", "in_short": "as §1"}, "[13]": {"target": "Fuc(a1-2)Gal(b1-3)GlcNAc6S", "in_short": "as §1"}, "[14]": {"target": "Fuc(a1-2)Gal(b1-3)[Fuc(a1-4)]GlcNAc", "in_short": "as §1"}, "[15]": {"target": "Fuc(a1-2)Gal(b1-3)[Fuc(a1-4)]GlcNAc(b1-2)Man(a1-3)[Fuc(a1-2)Gal(b1-3)[Fuc(a1-4)]GlcNAc(b1-2)Man(a1-3)]Man(b1-4)GlcNAc(b1-4)GlcNAc", "in_short": "as §1"}, "[16]": {"target": "Fuc(a1-2)Gal(b1-3)[Fuc(a1-4)]GlcNAc(b1-2)Man(a1-3)[Fuc(a1-2)Gal(b1-3)[Fuc(a1-4)]GlcNAc(b1-2)Man(a1-6)]Man(b1-4)GlcNAc(b1-4)[Fuc(a1-6)]GlcNAc(b1-4)[Fuc(a1-6)]GlcNAc", "in_short": "as §1"}, "[17]": {"target": "Fuc(a1-2)Gal(b1-3)[Fuc(a1-4)]GlcNAc(b1-3)[Fuc(a1-3)[Gal(b1-4)]GlcNAc(b1-6)]Gal(b1-4)Glc", "in_short": "as §1"}, "[18]": {"target": "Fuc(a1-2)Gal(b1-3)[Fuc(a1-4)]GlcNAc(b1-3)[Gal(b1-4)GlcNAc(b1-6)]Gal(b1-4)Glc", "in_short": "as §1"}, "[19]": {"target": "Fuc(a1-2)Gal(b1-4)Fuc(a1-3)]GlcNAc(b1-2)Man(a1-3)[Fuc(a1-2)Gal(b1-4)[Fuc(a1-3)]GlcNAc(b1-2)Man(a1-6)]Man(b1-4)GlcNAc(b1-4)GlcNAc", "in_short": "as §1"}, "Fuc(a1-2)Gal(b1-4)Glc": {"target": "Fuc(a1-2)Gal(b1-4)Glc", "in_short": "as §1"}, "Fuc(a1-2)Gal(b1-4)Glc6S": {"target": "Fuc(a1-2)Gal(b1-4)Glc6S", "in_short": "as §1"}, "Fuc(a1-2)Gal(b1-4)GlcNAc": {"target": "Fuc(a1-2)Gal(b1-4)GlcNAc", "in_short": "as §1"}, "[20]": {"target": "Fuc(a1-2)Gal(b1-4)GlcNAc(b1-2)Man", "in_short": "as §1"}, "[21]": {"target": "Fuc(a1-2)Gal(b1-4)GlcNAc(b1-2)Man(a1-3)[Fuc(a1-2)Gal(b1-4)GlcNAc(b1-2)Man(a1-6)]Man(b1-4)GlcNAc(b1-4)GlcNAc", "in_short": "as §1"}, "[22]": {"target": "Fuc(a1-2)Gal(b1-4)GlcNAc(b1-2)Man(a1-3)[Fuc(a1-2)Gal(b1-4)GlcNAc(b1-2)Man(a1-6)]Man(b1-4)GlcNAc(b1-4)[Fuc(a1-6)]GlcNAc", "in_short": "as §1"}, "[23]": {"target": "Fuc(a1-2)Gal(b1-4)GlcNAc(b1-2)[Fuc(a1-2)Gal(b1-4)GlcNAc(b1-4)]Man(a1-3)[Fuc(a1-2)Gal(b1-4)GlcNAc(b1-2)Man(a1-6)]Man(b1-4)GlcNAc(b1-4)GlcNAc", "in_short": "as §1"}, "[24]": {"target": "Fuc(a1-2)Gal(b1-4)GlcNAc(b1-3)Gal(b1-4)GlcNAc", "in_short": "as §1"}},
  "note": "This is one part of the list.",
  "data": [
    {"binder": "B1", "values": [
      {"measurement": "glycan array binding signal (z-score)", "setting": "Fuc(a1-2)Gal", "result": 0.28},
      {"measurement": "glycan array binding signal (z-score)", "setting": "Fuc(a1-2)Gal(b1-3)GalNAc", "result": 0.202},
      {"measurement": "glycan array binding signal (z-score)", "setting": "[1]", "result": -0.316},
      {"measurement": "glycan array binding signal (z-score)", "setting": "[2]", "result": -0.3},
      {"measurement": "glycan array binding signal (z-score)", "setting": "[3]", "result": -0.354},
      {"measurement": "glycan array binding signal (z-score)", "setting": "[4]", "result": 1.02},
      {"measurement": "glycan array binding signal (z-score)", "setting": "[5]", "result": -0.344},
      {"measurement": "glycan array binding signal (z-score)", "setting": "Fuc(a1-2)Gal(b1-3)GlcNAc", "result": 5.31},
      {"measurement": "glycan array binding signal (z-score)", "setting": "[6]", "result": 2.78},
      {"measurement": "glycan array binding signal (z-score)", "setting": "[7]", "result": 1.34},
      {"measurement": "glycan array binding signal (z-score)", "setting": "[8]", "result": 4.85},
      {"measurement": "glycan array binding signal (z-score)", "setting": "[9]", "result": 3.31},
      {"measurement": "glycan array binding signal (z-score)", "setting": "[10]", "result": 0.55},
      {"measurement": "glycan array binding signal (z-score)", "setting": "[11]", "result": 1.54},
      {"measurement": "glycan array binding signal (z-score)", "setting": "[12]", "result": 0.37},
      {"measurement": "glycan array binding signal (z-score)", "setting": "[13]", "result": 4.12},
      {"measurement": "glycan array binding signal (z-score)", "setting": "[14]", "result": 2.21},
      {"measurement": "glycan array binding signal (z-score)", "setting": "[15]", "result": -0.123},
      {"measurement": "glycan array binding signal (z-score)", "setting": "[16]", "result": 0.907},
      {"measurement": "glycan array binding signal (z-score)", "setting": "[17]", "result": 0.572},
      {"measurement": "glycan array binding signal (z-score)", "setting": "[18]", "result": 0.304},
      {"measurement": "glycan array binding signal (z-score)", "setting": "[19]", "result": -0.336},
      {"measurement": "glycan array binding signal (z-score)", "setting": "Fuc(a1-2)Gal(b1-4)Glc", "result": -0.039},
      {"measurement": "glycan array binding signal (z-score)", "setting": "Fuc(a1-2)Gal(b1-4)Glc6S", "result": 1.38},
      {"measurement": "glycan array binding signal (z-score)", "setting": "Fuc(a1-2)Gal(b1-4)GlcNAc", "result": -0.152},
      {"measurement": "glycan array binding signal (z-score)", "setting": "[20]", "result": -0.338},
      {"measurement": "glycan array binding signal (z-score)", "setting": "[21]", "result": -0.015},
      {"measurement": "glycan array binding signal (z-score)", "setting": "[22]", "result": -0.339},
      {"measurement": "glycan array binding signal (z-score)", "setting": "[23]", "result": -0.338},
      {"measurement": "glycan array binding signal (z-score)", "setting": "[24]", "result": -0.335}
    ]}
  ]
}
